Results are given in words; binding and its absence hold for the method and conditions named. For some assays here: In cells and extracts the contact can be indirect. Some results given as binding are weak or reduced against the parent protein; the word gives no strength. For some assays here: Tags and fused reporters may be left off the sequences shown.
T1: Ndd1-VC (budding yeast) (UniProt Q08887)
T1 sequence: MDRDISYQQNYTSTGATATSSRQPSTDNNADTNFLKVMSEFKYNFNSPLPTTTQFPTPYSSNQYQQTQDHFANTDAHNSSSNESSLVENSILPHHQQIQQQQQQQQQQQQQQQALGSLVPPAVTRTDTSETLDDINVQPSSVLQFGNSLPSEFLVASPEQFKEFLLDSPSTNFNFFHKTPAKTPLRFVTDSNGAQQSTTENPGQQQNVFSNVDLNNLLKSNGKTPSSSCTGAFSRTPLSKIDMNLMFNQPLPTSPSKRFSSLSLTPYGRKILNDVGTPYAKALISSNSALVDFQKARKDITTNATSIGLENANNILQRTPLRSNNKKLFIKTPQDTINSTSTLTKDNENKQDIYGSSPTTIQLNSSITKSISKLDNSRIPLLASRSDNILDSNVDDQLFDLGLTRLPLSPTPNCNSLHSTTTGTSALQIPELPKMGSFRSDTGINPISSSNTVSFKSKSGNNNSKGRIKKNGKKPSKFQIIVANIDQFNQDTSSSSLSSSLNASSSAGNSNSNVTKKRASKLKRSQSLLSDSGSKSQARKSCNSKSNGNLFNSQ

T2: Fkh2 full-length (two-hybrid bait) (budding yeast) (UniProt P41813)
T2 sequence: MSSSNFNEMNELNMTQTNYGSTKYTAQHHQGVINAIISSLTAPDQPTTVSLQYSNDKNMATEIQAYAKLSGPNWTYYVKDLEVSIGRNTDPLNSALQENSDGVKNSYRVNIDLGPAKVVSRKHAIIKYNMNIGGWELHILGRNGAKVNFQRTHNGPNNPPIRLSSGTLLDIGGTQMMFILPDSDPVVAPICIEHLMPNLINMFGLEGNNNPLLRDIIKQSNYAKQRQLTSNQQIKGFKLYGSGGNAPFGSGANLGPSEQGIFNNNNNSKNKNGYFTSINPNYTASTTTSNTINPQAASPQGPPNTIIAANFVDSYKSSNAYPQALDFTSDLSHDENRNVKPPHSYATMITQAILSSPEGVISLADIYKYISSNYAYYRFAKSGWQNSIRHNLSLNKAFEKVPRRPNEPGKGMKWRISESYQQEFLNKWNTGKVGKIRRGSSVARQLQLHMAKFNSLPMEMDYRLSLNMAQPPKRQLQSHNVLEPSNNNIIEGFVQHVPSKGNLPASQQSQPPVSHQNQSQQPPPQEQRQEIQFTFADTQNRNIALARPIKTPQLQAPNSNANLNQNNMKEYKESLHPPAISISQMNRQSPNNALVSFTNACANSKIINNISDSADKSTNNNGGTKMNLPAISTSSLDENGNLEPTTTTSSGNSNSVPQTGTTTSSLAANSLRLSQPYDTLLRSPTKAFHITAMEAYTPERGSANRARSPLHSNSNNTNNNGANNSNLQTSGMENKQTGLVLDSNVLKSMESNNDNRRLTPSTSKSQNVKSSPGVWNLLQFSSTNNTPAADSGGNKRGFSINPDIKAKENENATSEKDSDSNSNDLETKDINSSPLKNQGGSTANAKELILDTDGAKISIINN

T3: LexA-Fkh2_(387), truncated C-terminal region of Fkh2 (amino acids 387-862) (budding yeast) (UniProt P41813)
T3 sequence: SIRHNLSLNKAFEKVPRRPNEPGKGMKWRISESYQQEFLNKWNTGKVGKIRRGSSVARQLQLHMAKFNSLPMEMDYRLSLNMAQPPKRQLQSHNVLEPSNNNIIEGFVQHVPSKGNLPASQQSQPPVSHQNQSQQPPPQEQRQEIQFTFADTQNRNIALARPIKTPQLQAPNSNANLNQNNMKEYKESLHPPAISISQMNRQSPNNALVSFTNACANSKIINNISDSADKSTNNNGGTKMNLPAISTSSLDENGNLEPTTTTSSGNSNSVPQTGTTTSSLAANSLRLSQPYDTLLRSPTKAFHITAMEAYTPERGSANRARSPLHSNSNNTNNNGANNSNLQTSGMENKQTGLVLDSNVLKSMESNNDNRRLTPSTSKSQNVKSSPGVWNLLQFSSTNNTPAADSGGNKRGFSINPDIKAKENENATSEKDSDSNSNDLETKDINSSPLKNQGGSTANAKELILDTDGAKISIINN


Legend:
[1] = biological target: T1, Ndd1-VC (budding yeast); assay: split reporter; BiFC with Venus fragments: Ndd1-VC in haploid yeast cells, VN fusions from p426 plasmids; fluorescence microscopy; for Fkh2/Ndd1 followed in time after alpha-factor synchronisation and in hydroxyurea-treated cells
[2] = biological target: T2, Fkh2 full-length (two-hybrid bait) (budding yeast); assay: two-hybrid; LexA-Fkh2 baits (pBTM117) and AD-Clb1-6 preys (pACT4), overexpressed; yeast spotted onto SDII and SDIV selective media or on a membrane for beta-galactosidase activity
[3] = biological target: T3, LexA-Fkh2_(387), truncated C-terminal region of Fkh2 (amino acids 387-862) (budding yeast); assay: as above

Row | binding [1] | binding [2] | binding [3] | Binder
1 | binds |  |  | VN-Fkh2 (protein, UniProt P41813 1-862) MSSSNFNEMNELNMTQTNYGSTKYTAQHHQGVINAIISSLTAPDQPTTVSLQYSNDKNMATEIQAYAKLSGPNWTYYVKDLEVSIGRNTDPLNSALQENSDGVKNSYRVNIDLGPAKVVSRKHAIIKYNMNIGGWELHILGRNGAKVNFQRTHNGPNNPPIRLSSGTLLDIGGTQMMFILPDSDPVVAPICIEHLMPNLINMFGLEGNNNPLLRDIIKQSNYAKQRQLTSNQQIKGFKLYGSGGNAPFGSGANLGPSEQGIFNNNNNSKNKNGYFTSINPNYTASTTTSNTINPQAASPQGPPNTIIAANFVDSYKSSNAYPQALDFTSDLSHDENRNVKPPHSYATMITQAILSSPEGVISLADIYKYISSNYAYYRFAKSGWQNSIRHNLSLNKAFEKVPRRPNEPGKGMKWRISESYQQEFLNKWNTGKVGKIRRGSSVARQLQLHMAKFNSLPMEMDYRLSLNMAQPPKRQLQSHNVLEPSNNNIIEGFVQHVPSKGNLPASQQSQPPVSHQNQSQQPPPQEQRQEIQFTFADTQNRNIALARPIKTPQLQAPNSNANLNQNNMKEYKESLHPPAISISQMNRQSPNNALVSFTNACANSKIINNISDSADKSTNNNGGTKMNLPAISTSSLDENGNLEPTTTTSSGNSNSVPQTGTTTSSLAANSLRLSQPYDTLLRSPTKAFHITAMEAYTPERGSANRARSPLHSNSNNTNNNGANNSNLQTSGMENKQTGLVLDSNVLKSMESNNDNRRLTPSTSKSQNVKSSPGVWNLLQFSSTNNTPAADSGGNKRGFSINPDIKAKENENATSEKDSDSNSNDLETKDINSSPLKNQGGSTANAKELILDTDGAKISIINN
2 |  | binds | binds | AD-Clb5 (protein, UniProt P30283 1-435) MGENHDHEQSIKRNSMIYNENERQLCNSNLKILQNKRALSKNDSSSKQQVQDSKPRRALTDVPVNNNPLSQNKRIVAGSKAAKVRREENIRPIVSAVQKRQIYNDRTAAEQEEEEEEEGEDDDAASIVNKKRRIDAEGVSEIVGWQDLDYVEKDDTAMVAEYSAEIFAFLYRRELETLPSHNYLLDKTSKYYLRPSMRTILVDWLVEVHEKFQCYPETLFLSINLMDRFLAKNKVTMNKLQLLAVTSLFIAAKFEEVNLPKLAEYAYITDGAASKNDIKNAEMFMLTSLEFNIGWPNPLNFLRRISKADDYDPVNRNIGKFILEYAYCCHQFIHLPPSTVSAMAMYIARRMTNRNKNELWNGTLQHYSGGIDPIHDEAFQSLCIDLVKDIASSKTHLDSLILKYKKPRYGSVYFQTFKWCTSEMHSNFQNLFNLK
3 | binds |  |  | VN-Clb3 (protein, UniProt P24870 1-427) MHHNSQSLSSGHIRSPEDENVAPIGNLKHRTGSLSHISSAHPRVALSDVTNIVATNSSNNSISKPKVAPIKERLDSAAIIEEERLDANSVAQRKEADHNDLLTDREQEEPVEDDGESEEDEEEDQEPLLLQHYASDTLVWEHAFRTYYRTTLDPNDDDVYDVVMVAELSNEIFEYMRKLEDLYKPNPYYMDKQPELRWSFRSTLIDWIVQVHEKFQLLPETLYLCINIIDRYLCKEVVPVNKFQLVGAASLFIAAKYEEINCPTIKDFVYMSENCYSRNDLLDAERTILNGLEFELGWPGPMSFLRRISKADDYEHDTRTLAKYLLESTIMDHRLVSAQPSWLAAGAYFLSKIILGQNQWSLAHVYYSNYTQEQILPLATIILENCRYASKRHNAIWRKYSSRRYLHSSQIVAKWIALAEHRVERSN
4 |  | binds | binds | AD-Clb1 (protein, UniProt P24868 1-471) MSRSLLVENSRTINSNEEKGVNESQYILQKRNVPRTILGNVTNNANILQEISMNRKIGMKNFSKLNNFFPLKDDVSRADDFTSSFNDSRQGVKQEVLNNKENIPEYGYSEQEKQQCSNDDSFHTNSTALSCNRLIYSENKSISTQMEWQKKIMREDSKKKRPISTLVEQDDQKKFKLHELTTEEEVLEEYEWDDLDEEDCDDPLMVSEEVNDIFDYLHHLEIITLPNKANLYKHKNIKQNRDILVNWIIKIHNKFGLLPETLYLAINIMDRFLCEEVVQLNRLQLVGTSCLFIASKYEEIYSPSIKHFAYETDGACSVEDIKEGERFILEKLDFQISFANPMNFLRRISKADDYDIQSRTLAKFLMEISIVDFKFIGILPSLCASAAMFLSRKMLGKGTWDGNLIHYSGGYTKAKLYPVCQLLMDYLVGSTIHDEFLKKYQSRRFLKASIISIEWALKVRKNGYDIMTLHE
5 |  | binds | binds | AD-Clb6 (protein, UniProt P32943 1-380) MNCIPSPISERKIQINNEDCIGKENAFHTIPRESSINLTPHSTNEKKVLSEVNSNKIDSLQLPRGKLQRDSTHLEKTRKRQLSNDSTDPIEPKTVKKIKCHQWKNLDSIEMDDPFMVAEYTDSIFSHLYEKEIQMLPTHNYLMDTQSPYHLKSSMRALLIDWLVEVHEKFHCLPETLFLAINLLDRFLSQNVVKLNKLQLLCITCLFIACKFEEVKLPKITNFAYVTDGAATVEGIRKAELFVLSSLGYNISLPNPLNFIRRISKADNYCIETRNMAKFIMEYSICCNKFIHLKPSYLAAMSMYIARKIKNENSKWDETFIHYSGGIDIESDPAFKDFISELVEDIAVPDTNLDSLRLKYKKPKHGMVYFKVFDWCKQKR
6 |  | binds | binds | AD-Clb4 (protein, UniProt P24871 1-460) MMLEGYTVQPPQSTLIGDIEIQDENANQEVKNVLYQGVQKGIKRLEKRQRRVALGDVTSQKANKIHNAIHNKFHQTKNNFEIENIRSSALVKEQQRDVRHEDSDYFLIDSSEGSSTDDEQVNEDAIDDLLSRRVNDQQIQADEVYEDFDGEMQDVIEEDVDSQIEPLSPINNDEIQTELDRAFEKYFRSVPNPLDDDTHDVVMVVEYASDIFYYLRELEVKYRPNPYYMQNQVELTWPFRRTMIDWLVQLHFRFQLLPETLYLTINIVDRFLSKKTVTLNRFQLVGVSALFIAAKFEEINCPTLDDLVYMLENTYTRDDIIRAEQYMIDTLEFEIGWPGPMPFLRRISKADDYDFEPRTLAKYLLETTIVEPKLVAAAPSWLAAGAYFLSRTILGSNDWSLKHVFYSGYTSSQIIPLASLILENCKNASRRHHSIWKKYFDQKHYRCSQIVEEWIVSTEA
7 | binds |  |  | VN-Clb2 (protein, UniProt P24869 1-491) MSNPIENTENSQNTSSSRFLRNVQRLALNNVTNTTFQKSNANNPALTNFKSTLNSVKKEGSRIPQFTRESVSRSTAAQEEKRTLKENGIQLPKNNLLDDKENQDPSSQQFGALTSIKEGRAELPANISLQESSSAKEIIQHDPLKGVGSSTEVVHNSVENEKLHPARSQLQVRNTESETDSGKKRPISTIVEQELPKKFKVCDENGKEEYEWEDLDAEDVNDPFMVSEYVNDIFEYLHQLEVITLPKKEDLYQHRNIHQNRDILVNWLVKIHNKFGLLPETLYLAINIMDRFLGKELVQLDKLQLVGTSCLFIASKYEEVYSPSIKHFASETDGACTEDEIKEGEKFILKTLKFNLNYPNPMNFLRRISKADDYDIQSRTLAKFLLEISLVDFRFIGILPSLCAAAAMFMSRKMLGKGKWDGNLIHYSGGYTKEELAPVCHMIMDYLVSPIVHDEFHRKYQSRRFMKASIISVQWALKVRKNGYDIMTLHE

— paper PMC5460246
